Screen size: about 46,000 compounds; about 60 (0.1%) were called active. Another 3% or so got no clear call; they are omitted. Calls come from the whole dose curve; as a rule, active = well fitted inhibition curve with a large enough effect; inconclusive = small, poorly fitted or top-dose-only effect; inactive = no such curve, though single readings can be large or run the other way. The list shows a part of the results.

This assay in a line: Primary qHTS assay for Inhibitors of ovarian cancer metastasis using an organotypic tumor microenvironment (TME) model.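 For activity change, negative = inhibition: plate controls were DMSO wells for no effect and tomatine positive control wells for full effect.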 Note: nearly all actives have a fitted effect of over 65% in size. As to conditions: SKOV3ip1-GFP adhesion/invasion on 3D omental model, fluorescence; series mostly up to 45.8 µM; activity change, negative = inhibition: at the top concentration. The essentials:
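Primary human omental fibroblast/mesothelial 3D culture pre-formed 48 h. SKOV3ip1-GFP cells added with compounds (0.36-46 umol/L), incubated 2 h RT/16 h 37 C, fixed; GFP cells quantified at 488/509 nm.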
Background: In qHTS, concentration-response curves come from the screen itself.
With `CC(C)c1nn2c(=O)cc(COC(=O)c3ccccc3NC(=O)c3cccs3)nc2s1`, the “activity change, negative = inhibition” value is inactive: -6.78%.
As for `CCOC(=O)C1CCN(CCC(=O)Nc2ccccc2Cl)CC1`, the molecule was called inactive.
On to `O=C(N[C@H](CO)[C@H](O)c1ccc([N+](=O)[O-])cc1)C(Cl)Cl`, for which the “activity change, negative = inhibition” value is inactive: -8.26%.
The same measure, in the same setting: for `CCOc1ccc(N(Cc2cc3cc(C)ccc3[nH]c2=O)C(=O)c2cccc(Cl)c2)cc1` the value was inactive: 3.49%.
For the molecule `COc1ccc(S(=O)(=O)NCCc2cn3ccsc3n2)cc1OC`, the outcome was inactive.
Regarding `CCn1c2ccccc2c2nnc(N3CCN(c4cccc(C)c4C)CC3)nc21`, the “activity change, negative = inhibition” value was inactive: -8.75%.
For `O=C(NCCCN1CCOCC1)c1ccc2c(c1)N(Cc1ccccc1)C(=O)c1ccccc1S2`, the “activity change, negative = inhibition” value is inactive: 15.4%.
Turning to `Cc1ccc(C)c(CN2CCC(CNC(=O)Cn3ncc4c([nH]c5ccccc54)c3=O)CC2)c1`, the “activity change, negative = inhibition” value is inactive: -0.0371%.
Consider `Cc1ccc(-n2ncc3c(NCCc4ccccc4)ncnc32)cc1C`, for which the “activity change, negative = inhibition” value was inactive: -0.887%.
Take `CCOC(=O)CSc1nc2sc3c(c2c(=O)n1Cc1ccccc1)CC(C)CC3` (configuration not stated): the result was inactive.
For `CCOc1ccccc1CNC(=O)CN1C(=O)CCCc2ccccc21`, the outcome was inactive.
`Cc1cccc(OCCCCn2nnc3sc4c(c3c2=O)CCC(C)C4)c1` (configuration not stated): the “activity change, negative = inhibition” value is inactive: -3.18%.
Take `O=C(Cn1nc(N2CCN(c3ccccc3)CC2)ccc1=O)NCc1cccc(Cl)c1`: the “activity change, negative = inhibition” value was inactive: -1.5%.
As to `CCOc1ccc(NC(=O)NC(C)c2c(-n3cccc3)sc(C)c2C)cc1` (configuration not stated), the “activity change, negative = inhibition” value is inactive: 1.22%.
`Cc1ccc(OCCSc2nc3ccc(NC(=O)COc4ccc(F)cc4)cc3s2)cc1`: the result was inactive.
With `CCN(CC)CCNC(=O)C1CCN(S(=O)(=O)c2c(C)noc2/C=C/c2ccccc2F)CC1`, the molecule was called inactive.
Regarding `COc1ccc(-n2c(/C=C/c3cc(OC)c(OC)cc3OC)nc3cc4ccccc4cc3c2=O)cc1Cl`, the “activity change, negative = inhibition” value is inactive: -23.3%.
Regarding `Cc1nc2nc(SCC(=O)NCc3ccccc3)nn2c(C)c1Cc1ccccc1Cl`, the result was inactive.
Regarding `O=C(COc1ccccc1)Nc1ccc(C(=O)OCc2cc(=O)n3nc(C4CC4)sc3n2)cc1`, the “activity change, negative = inhibition” value is inactive: 19.7%.
On the same count and under the same terms, with `CCOC(=O)c1cc(-c2ccc(F)cc2)n(CC(=O)NC2CCCCC2)c1C` the figure was inactive: 2.98%; with `O=C(CN1CCCN(Cc2ccccc2Cl)S1(=O)=O)Nc1ccc2c(c1)OCCO2`, inactive: -7.9%; with `Cc1cc(C)n2c(Nc3c(C)cccc3C)c(-c3ccsc3)nc2n1`, inactive: 4.61%.
Consider `COc1ccc(-c2c(C)nn3c(C(F)(F)F)cc(-c4ccc(Br)cc4)nc23)cc1`, for which the “activity change, negative = inhibition” value was inactive: 4.94%.
On to `CCc1cccc(C)c1NC(=O)CN1CCCN(Cc2ccc(C)cc2)S1(=O)=O`, for which the “activity change, negative = inhibition” value was inactive: -17.7%.
As to `O=C(Cc1cccs1)NC1CC(=O)N(c2ccccc2)C1` (configuration not stated), the “activity change, negative = inhibition” value was inactive: -1.35%.
In the case of `CCN(C(=O)COc1cc(=O)n(C)c2ccccc12)c1cccc(C(F)(F)F)c1`, the molecule was called inactive.
As for `Cc1ccccc1CN1CCc2nc(Nc3ccc4c(c3)OCCO4)ncc2C1`, the call was inactive.

Values taken from PubChem BioAssay AID1963576 (National Center for Advancing Translational Sciences (NCATS), 2024).
